Source: PubChem BioAssay AID588855 (National Center for Advancing Translational Sciences (NCATS), 2011)
Screen size: about 410,000 compounds; about 5,000 (1.2%) were called active. The inconclusive results got no clear call from the source; some entries with a clear call stand among them for comparison. Calls come from the whole dose curve; as a rule, active = well fitted inhibition curve with a large enough effect; inconclusive = small, poorly fitted or top-dose-only effect; inactive = no such curve, though single readings can be large or run the other way. Where the call is inconclusive, the potency comes from a doubtful curve fit.
Potency is the fitted concentration of half-maximal effect; tags give direction and shape of the fitted curve.

Experiment: qHTS for Inhibitors of TGF-b; note: nearly all actives have a fitted effect of over 65% in size
Conditions: HepG2 CAGA-GFP TGF-b/SMAD3 reporter, GFP fluorescence, 18 h, TGF-beta stimulated, 500 pg/mL final; series mostly up to 46.1 µM
Summary of the method: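 Cell-based qHTS in HEPG2 carrying a CAGA-GFP Smad reporter; compounds added before 500 pg/mL final TGF-beta, 18 h incubation at 37 degrees C, GFP fluorescence quantified per cell by imaging cytometry.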
For COc1ccc(NC(=O)CN(c2cc(C)cc(C)c2)S(=O)(=O)c2c(C)n[nH]c2C)cc1, the Potency was “inactive”.
With CC(C)N(C(=O)[C@H]1C[C@H](CC(=O)NCC23CC4CC(CC(C4)C2)C3)C(=O)N2CCc3c([nH]c4cc(-c5ccco5)ccc34)[C@]12C)C(C)C the Potency was inconclusive: 10 µM [inhibitor, partial curve, poor fit].
With CCOP1(=O)C=C(Sc2ccc([N+](=O)[O-])cc2[N+](=O)[O-])C(C)(C)O1 (configuration not stated) the Potency was “inactive”.
With CC(C)c1ccc(S(=O)(=O)N2CCN(C(=O)c3ccncc3)CC2)cc1 the Potency was “inactive”.
With Cc1ccc(SCCn2nc(C(=O)O)c3ccccc3c2=O)cc1 the Potency was inconclusive: 5.62 µM [inhibitor, single point].
With COCc1nnc(NC(=O)C2CC(=O)N(C3CCCC3)C2)s1 (configuration not stated) the Potency was inconclusive: 15.8 µM [inhibitor, single point].
In the case of Cc1c(C(=O)N2CCN(Cc3ccc4c(c3)OCO4)CC2)sc2ncnc(N3CCN(c4ccccc4)CC3)c12, the Potency is reported as inconclusive: 2.24 µM [inhibitor, partial curve, poor fit].
With CC(=O)c1c(C)[nH]c(C(=O)COc2ccc(C#N)cc2)c1C the Potency was “inactive”.
In the case of CC1Cn2c(C(=O)NCCc3ccc(Cl)cc3)cc3cccc(c32)S1 (configuration not stated), the Potency is reported as inconclusive: 12.6 µM [inhibitor, partial curve, poor fit].
In the case of CCc1cc2c(C)ccc(C)c2nc1SCC(=O)Nc1c[nH]c(=O)[nH]c1=O, the Potency is reported as “inactive”.
In the case of CCN(CC)CCNc1ccc(CO)c2sc3ccccc3c(=O)c12, the Potency is reported as inconclusive: 35.5 µM [inhibitor, single point].
In the case of CCOc1ccccc1NC(C)C(=O)Nc1cc(C(F)(F)F)ccc1N1CCOCC1 (configuration not stated), the Potency is reported as inconclusive: 35.5 µM [inhibitor, single point].
For COC(=O)C1=C(C(=O)OC)[C@@H]2N(Cc3ccccc3)c3ccccc3[C@@]23C[C@@H](C(=O)OC)N(C(=O)c2cccs2)C3=N1, the Potency was inconclusive: 15.8 µM [inhibitor, partial curve, poor fit].
With C#CCNC(=O)C1=C[C@H](c2csc3ccccc23)[C@@H](CCCO)[C@H](OCC)O1 the Potency was inconclusive: 8.91 µM [inhibitor, partial curve, poor fit].
In the case of CCOc1ccc(NC(=O)C2CCN(c3nnc(C)c4c(C)n(-c5ccccc5)nc34)CC2)cc1, the Potency is reported as “inactive”.
For C=CCOc1ccc(-c2n[nH]c(=S)o2)cc1, the Potency was inconclusive: 0.316 µM [inhibitor, partial curve, poor fit].
With Cc1ccc(NC(=O)CSc2nc3c([nH]c4ccccc43)c(=O)n2-c2ccccc2)cc1Cl the Potency was inconclusive: 0.631 µM [inhibitor, full curve, poor fit].
